{"source": "ChEMBL document CHEMBL1201862", "about": "“PubChem BioAssay data set” (2004)", "note": "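Results reflect a 48-hour exposure of cells in 96-well plates to compound at five concentrations. Here, GI50 denotes the concentration required for 50% inhibition of growth.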 The source made the active and inactive calls. Rule as the data show it: active = GI50 up to about 1.1 µM and inactive = higher.", "data": [{"tested_on": "NCI-H322M", "assay": "NCI anticancer screen, dose series, 48 h", "values": [{"smiles": "COc1cccc([C@@H]2CC(=O)c3cc4c(cc3N2)OCO4)c1", "GI50": "inactive: > 100 µM"}, {"smiles": "Nc1nc(Cl)cc(NCC2(CO)CC(c3ccccc3)C2)n1", "note": "(centres undefined)", "GI50": "inactive: > 100 µM"}, {"smiles": "CC(=O)Oc1ccc(Nn2c3ccccc3c3ccccc32)c(C)c1", "GI50": "inactive: > 100 µM"}, {"smiles": "COc1ccc(CC#C/C=C/C(=O)NCC(C)C)cc1", "GI50": "inactive: > 100 µM"}, {"smiles": "CSC(SC)(C(=O)O)c1cc(-c2c(Cl)cccc2Cl)no1", "GI50": "inactive: 21.9 µM"}, {"smiles": "COc1cc(/C=N/NC(=O)c2c(Cl)c(Cl)c(Cl)c(Cl)c2-c2nc3ccccc3[nH]2)ccc1O", "GI50": "inactive: 22.5 µM"}, {"smiles": "O=C(Nc1ccccc1-c1n[nH]c(S)nc1=O)C(F)(F)F", "GI50": "inactive: > 100 µM"}, {"smiles": "CCOC(=O)c1c(SC(=O)c2ccc(OC)cc2)n(-c2ccccc2)c(=S)n(-c2ccccc2)c1=O", "GI50": "inactive: 36.5 µM"}, {"smiles": "CCc1ccc(Nc2cc(=O)n(C)c(SCc3ccccc3)n2)cc1", "GI50": "inactive: > 100 µM"}, {"smiles": "COCOCc1cc(OCc2ccccc2)c(OC)cc1Br", "GI50": "inactive: > 100 µM"}, {"smiles": "COc1ccc2nc(-c3ccc(O)cc3)cn2c1", "GI50": "inactive: 92.5 µM"}, {"smiles": "Cc1ccc([S+]([O-])(=Nc2ccccc2)C(C(C)C)C(C)(C)Cl)cc1", "note": "(centres undefined)", "GI50": "inactive: 4.04 µM"}, {"smiles": "O=C(/C=C/c1ccc([N+](=O)[O-])cc1)N1CCN(CCOC(c2ccc(F)cc2)c2ccc(F)cc2)CC1", "GI50": "inactive: 83 µM"}, {"smiles": "Cc1ccc(S(=O)(=O)N2CCC[C@@H]2C(=O)O[C@@H]2CCC3CC=CC32)cc1", "note": "(some centres undefined)", "GI50": "inactive: 64.1 µM"}, {"smiles": "CCN(CC)CCn1c2ccccc2c(=O)c2c(OC)ccc(OC)c21", "GI50": "inactive: 52.1 µM"}, {"smiles": "COc1ccc(-c2ccccc2)c(N/N=C2\\CCCNC2=O)c1", "GI50": "inactive: > 100 µM"}, {"smiles": "O=C(NNC(=S)Nc1cccc(Cl)c1)c1cc(-c2ccccc2)nc2ccccc12", "GI50": "inactive: 13.7 µM"}, {"smiles": "CC(/C=C1\\CCC(CN(C)C)C1=O)c1cccc(Br)c1", "note": "(centres undefined)", "GI50": "inactive: 19.2 µM"}, {"smiles": "CO[C@@H]1[C@@H](OC2OC(C)C(OC3CC(C)(O)C(OC(=O)CC(C)C)C(C)O3)C(N(C)C)C2O)[C@@H](CC=O)C[C@@H](C)C(=O)/C=C/C2O[C@H]2C[C@@H](C)OC(=O)C[C@H]1OC(C)=O", "note": "(some centres undefined)", "GI50": "inactive: 24.8 µM"}, {"smiles": "COc1ccc(Nc2nc3cc(C(F)(F)F)ccc3nc2C(=O)O)cc1OC", "GI50": "inactive: 35.6 µM"}, {"smiles": "COc1ccc2c(c1)C(OC)C1c3c(cc4c(c3-2)OCO4)CCN1C", "note": "(centres undefined)", "GI50": "inactive: 4.29 µM"}, {"smiles": "CC(C)=CC(=O)c1[nH]c2ccccc2c1CC(=O)NCCc1cn(C(c2ccccc2)(c2ccccc2)c2ccccc2)cn1", "GI50": "inactive: 3.96 µM"}, {"smiles": "Cc1ccc(S(=O)(=O)N/N=C2\\CC(C)OC3=C2CCCCCC3)cc1", "note": "(centres undefined)", "GI50": "inactive: 21.3 µM"}, {"smiles": "CNC(=S)OCCC(C)CCCC(C)C", "note": "(centres undefined)", "GI50": "inactive: 18.2 µM"}, {"smiles": "c1ccc2c(c1)CCCC/C2=N/OCC1CO1", "note": "(centres undefined)", "GI50": "inactive: > 100 µM"}, {"smiles": "CC(C)/C(Cl)=N/OC(NC(=O)Nc1ccc(Cl)c(Cl)c1)(C(F)(F)F)C(F)(F)F", "GI50": "inactive: 16.9 µM"}, {"smiles": "CC(C)(C)[Si](C)(C)OCC1OC(n2ccc(=O)[nH]c2=O)C(O[Si](C)(C)C(C)(C)C)[C@]12O[C@@H]2CO", "note": "(some centres undefined)", "GI50": "inactive: 18.5 µM"}, {"smiles": "CNC(=O)Nc1nc2cc([N+](=O)[O-])ccc2[nH]1", "GI50": "inactive: > 100 µM"}, {"smiles": "NNC(=O)C(O)C(O)C(=O)NN", "note": "(centres undefined)", "GI50": "inactive: > 100 µM"}, {"smiles": "O=Cc1cc(O)c(O)c(/C=N/n2c3ccccc3c3ccccc32)c1", "GI50": "inactive: 7.21 µM"}, {"smiles": "O=c1oc2c(Br)c(O)c(Br)cc2c2ccccc12", "GI50": "inactive: 25.1 µM"}, {"smiles": "C=C(c1ccccc1N)[C@@]1(O)C[C@H](/C(=C\\C)CO)C[C@@H]1NCc1ccccc1", "GI50": "inactive: 45 µM"}, {"smiles": "N=C(N)NCCCC(NC(=O)OCCCCCn1ccc(N)nc1=O)C(=O)O", "note": "(centres undefined)", "GI50": "inactive: > 100 µM"}, {"smiles": "CN(C)CCN(C)C(=O)C1CCCN1C(=O)OCc1ccccc1", "note": "(centres undefined)", "GI50": "inactive: > 100 µM"}, {"smiles": "COC(=O)[C@@H]1CC(C(CN)c2cn(C(=O)OC(C)(C)C)c3ccccc23)C(=O)N1C(=O)OC(C)(C)C", "note": "(some centres undefined)", "GI50": "inactive: 83.4 µM"}, {"smiles": "NC1C=NNC1=O", "note": "(centres undefined)", "GI50": "inactive: > 100 µM"}, {"smiles": "CCOC(=S)SSSC(=S)OCC", "GI50": "inactive: > 100 µM"}, {"smiles": "Nc1c(-c2nc3ccccc3o2)sc(=S)n1-c1ccc(Cl)cc1", "GI50": "inactive: 26.3 µM"}, {"smiles": "Cc1c(Cl)cccc1NC(=O)C(=O)C1C(=O)CC(C)(C)CC1=O", "GI50": "inactive: > 100 µM"}, {"smiles": "O=C(O)CCSC(=O)Nc1cccc([N+](=O)[O-])c1", "GI50": "inactive: > 100 µM"}, {"smiles": "OC1NC2CC3NC(O)C(O)NC3CC2NC1O", "note": "(centres undefined)", "GI50": "inactive: > 100 µM"}, {"smiles": "COc1ccc2c(c1)OCc1c-2oc2ccccc2c1=O", "GI50": "inactive: > 100 µM"}, {"smiles": "COc1ccc(CCc2ccc(O)c(C(=O)O)c2)cc1OC", "GI50": "inactive: > 100 µM"}, {"smiles": "CCCCC(NC(=O)CC)C(=O)O", "note": "(centres undefined)", "GI50": "inactive: > 100 µM"}, {"smiles": "COc1ccc(NC(=O)N(C)CC2(O)CCC(C(C)(C)C)CC2)cc1", "note": "(centres undefined)", "GI50": "inactive: > 100 µM"}, {"smiles": "CC(=O)OC(/C=C/c1ccccc1)=C(OC(C)C)/C1=C(\\c2ccccc2)SCCCSC1=O", "GI50": "inactive: > 100 µM"}, {"smiles": "Cc1ccc(/C=C/c2n[nH]c(N/N=C/c3ccc4c(c3)OCO4)nc2=O)cc1", "GI50": "inactive: 21.7 µM"}, {"smiles": "CC(C(=O)c1ccccc1)C1(O)C(=O)Nc2ccccc21", "note": "(centres undefined)", "GI50": "inactive: > 100 µM"}, {"smiles": "CC(C)(C)c1cc(C2NCCO2)cc(C(C)(C)C)c1O", "note": "(centres undefined)", "GI50": "inactive: > 100 µM"}, {"smiles": "CCOc1ccc([Se][Se]c2ccc(OCC)cc2)cc1", "GI50": "inactive: > 100 µM"}, {"smiles": "O=C1c2cc3c(cc2CC1Br)CCC3", "note": "(centres undefined)", "GI50": "inactive: 16 µM"}, {"smiles": "C(CCC[Te][Te]CCCCCCOC1CCCCO1)CCOC1CCCCO1", "note": "(centres undefined)", "GI50": "inactive: 17.1 µM"}, {"smiles": "COc1ccc(Nc2nc(C#N)c(N)s2)cc1", "GI50": "inactive: > 100 µM"}, {"smiles": "CN(C)CCNC(=O)Cn1cnc2cccc([N+](=O)[O-])c2c1=O", "GI50": "inactive: > 100 µM"}, {"smiles": "CN(C)CCOc1ccc(-c2c(Oc3ccc(Cl)cc3)c(=O)oc3ccccc23)cc1", "GI50": "inactive: 6.78 µM"}, {"smiles": "N#C/C(=C\\c1ccc2ccccc2c1)c1ccccc1", "GI50": "inactive: 29.2 µM"}, {"smiles": "C(=C\\Nc1ccc(Oc2ccccc2)cc1)/C=N/c1ccc(Oc2ccccc2)cc1", "GI50": "inactive: 16.5 µM"}, {"smiles": "Cc1ccc2c(c1)nc1n2C(N)=Nc2ccccc2S1", "GI50": "inactive: > 100 µM"}, {"smiles": "CCCCCCCC(=O)OCC1OC(n2cc(F)c(=O)[nH]c2=O)C(NC(=O)OCc2ccccc2)C(OC(=O)CCCCCCC)C1O", "note": "(centres undefined)", "GI50": "inactive: 52.6 µM"}, {"smiles": "O=C(N/C(=C\\c1cc(Cl)ccc1Cl)c1nc2cc(Cl)ccc2[nH]1)c1ccccc1", "GI50": "inactive: 18.8 µM"}, {"smiles": "COc1ccc(-c2nc3ccccc3s2)cc1OC", "GI50": "inactive: 15.5 µM"}, {"smiles": "CC(C(=O)OCc1ccccc1)N(Cc1ccccc1)Cc1ccccc1", "note": "(centres undefined)", "GI50": "inactive: > 100 µM"}, {"smiles": "COC(=O)C1=C(C(=O)OC)C2(OC(C)=O)c3ccccc3-c3ccccc3C12", "note": "(centres undefined)", "GI50": "inactive: 19.3 µM"}, {"smiles": "O=C(NC(c1ccccc1)C(O)C(=O)OCc1ccc2c(c1)C(=O)c1ccccc1C2=O)c1ccccc1", "note": "(centres undefined)", "GI50": "inactive: 7.85 µM"}, {"smiles": "O=C(O)c1cc2cc(OCc3ccccc3)ccc2[nH]1", "GI50": "inactive: > 100 µM"}, {"smiles": "N=C(N)c1csc([C@@H]2O[C@H](CO)[C@@H](O)[C@H]2O)n1", "GI50": "inactive: > 100 µM"}, {"smiles": "C=C1C(=O)O[C@H]2[C@H]1CC(=O)/C(C)=C/CC[C@@]1(C)O[C@@H]21", "GI50": "inactive: 12.4 µM"}, {"smiles": "CCN(CCCl)CCCCNc1c2ccccc2nc2ccc(OC)cc12", "GI50": "active: 0.789 µM"}, {"smiles": "Nc1ccc(/N=N/c2ccccc2)cc1", "GI50": "inactive: 65.5 µM"}]}]}
